What all share (assay): glycan array binding signal (z-score within array); higher = stronger binding
Holding throughout (conditions): glycan notation: IUPAC condensed, linker removed

In one assay the target is Gal(b1-4)Glc6S. In short, it runs like this:
(§1)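 Glycan array data were curated from 3228 arrays in the Consortium for Functional Glycomics database and kept only where the protein sequence was available. Glycan names were converted to IUPAC-condensed notation, and columns mapping to the same glycan were averaged. The binding signal is a within-array Z-score, averaged across arrays of the same protein sequence at different concentrations or buffers and across linkers. Negative Z-scores can be read as non-binding.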

Another assay has as its target Gal(b1-4)GlcNAc. In a few lines: as §1
Assay [1] deals with Gal(b1-4)GlcNAc(a1-6)Gal(b1-4)GlcNAc. In a few lines:
as §1

The target in the next assay is Gal(b1-4)GlcNAc(b1-2)Man. In short, it runs like this: as §1
Assay [2] concerns the target Gal(b1-4)GlcNAc(b1-2)Man(a1-3)Man(b1-4)GlcNAc(b1-4)GlcNAc. In a few lines: as §1
Assay [3] addresses Gal(b1-4)GlcNAc(b1-2)Man(a1-3)[Gal(b1-4)GlcNAc(b1-2)Man(a1-6)]Man(b1-4)GlcNAc(b1-4)GlcNAc. In a few lines:
as §1

Assay [4] deals with Gal(b1-4)GlcNAc(b1-2)Man(a1-3)[Gal(b1-4)GlcNAc(b1-2)Man(a1-6)]Man(b1-4)GlcNAc(b1-4)[Fuc(a1-6)]GlcNAc. In short, it runs like this: as §1
Assay [5] has as its target Gal(b1-4)GlcNAc(b1-2)Man(a1-3)[Gal(b1-4)GlcNAc(b1-2)][GlcNAc(b1-4)]Man(b1-4)GlcNAc(b1-4)GlcNAc. In short, it runs like this: as §1
Assay [6] has as its target Gal(b1-4)GlcNAc(b1-2)Man(a1-3)[GlcNAc(b1-2)Man(a1-6)]Man(b1-4)GlcNAc(b1-4)GlcNAc. In a few lines: as §1
Assay [7] concerns the target Gal(b1-4)GlcNAc(b1-2)Man(a1-3)[Man(a1-6)]Man(b1-4)GlcNAc(b1-4)GlcNAc. In a few lines: as §1
The target in assay [8] is Gal(b1-4)GlcNAc(b1-2)Man(a1-6)Man(b1-4)GlcNAc(b1-4)GlcNAc. In a few lines:
as §1

For assay [9], the target named is Gal(b1-4)GlcNAc(b1-2)Man(a1-6)[GlcNAc(b1-2)Man(a1-3)]Man(b1-4)GlcNAc(b1-4)GlcNAc. In a few lines:
as §1

For assay [10], the target named is Gal(b1-4)GlcNAc(b1-2)Man(a1-6)[Man(a1-3)]Man(b1-4)GlcNAc(b1-4)GlcNAc. In a few lines:
as §1

Assay [11] concerns the target Gal(b1-4)GlcNAc(b1-2)[Gal(b1-4)GlcNAc(b1-4)]Man(a1-3)[Gal(b1-4)GlcNAc(b1-2)Man(a1-6)]Man(b1-4)GlcNAc(b1-4)GlcNAc. In short, it runs like this: as §1
Assay [12] deals with Gal(b1-4)GlcNAc(b1-2)[Gal(b1-4)GlcNAc(b1-4)]Man(a1-3)[Gal(b1-4)GlcNAc(b1-2)[Gal(b1-4)GlcNAc(b1-6)]Man(a1-6)]Man(b1-4)GlcNAc(b1-4)GlcNAc. In a few lines:
as §1

Assay [13] deals with Gal(b1-4)GlcNAc(b1-2)[Gal(b1-4)GlcNAc(b1-4)]Man(a1-3)[GlcNAc(b1-4)][Gal(b1-4)GlcNAc(b1-2)Man(a1-6)]Man(b1-4)GlcNAc(b1-4)GlcNAc. In a few lines:
as §1

For assay [14], the target named is Gal(b1-4)GlcNAc(b1-2)[Gal(b1-4)GlcNAc(b1-4)]Man(a1-3)[GlcNAc(b1-4)][Gal(b1-4)GlcNAc(b1-2)[Gal(b1-4)GlcNAc(b1-6)]Man(a1-6)]Man(b1-4)GlcNAc(b1-4)GlcNAc. In short, it runs like this:
as §1

Assay [15] concerns the target Gal(b1-4)GlcNAc(b1-2)[Gal(b1-4)GlcNAc(b1-4)]Man(a1-3)[GlcNAc(b1-4)][Gal(b1-4)GlcNAc(b1-2)[Gal(b1-4)GlcNAc(b1-6)]Man(a1-6)]Man(b1-4)GlcNAc(b1-4)[Fuc(a1-6)]GlcNAc. In short, it runs like this:
as §1

Assay [16] addresses Gal(b1-4)GlcNAc(b1-2)[Gal(b1-4)GlcNAc(b1-6)]Man(a1-6)[Gal(b1-4)GlcNAc(b1-2)Man(a1-3)]Man(b1-4)GlcNAc(b1-4)GlcNAc. In a few lines:
as §1

The target in assay [17] is Gal(b1-4)GlcNAc(b1-2)[Gal(b1-4)GlcNAc(b1-6)]Man(a1-6)[Gal(b1-4)GlcNAc(b1-2)Man(a1-3)]Man(b1-4)GlcNAc(b1-4)[Fuc(a1-6)]GlcNAc. In a few lines: as §1
Assay [18] deals with Gal(b1-4)GlcNAc(b1-2)[Gal(b1-4)GlcNAc(b1-6)]Man(a1-6)[GlcNAc(b1-4)][Gal(b1-4)GlcNAc(b1-2)Man(a1-3)]Man(b1-4)GlcNAc(b1-4)GlcNAc. In short, it runs like this: as §1
Assay [19] concerns the target Gal(b1-4)GlcNAc(b1-3)Gal(b1-3)GlcNAc. In a few lines:
as §1

The other results are listed elsewhere or left out.

B1: OrfX (Escherichia coli), Q9X4B6_ECOLX (protein)
chain: MIKIARIAVTLGLLSSLGAQAYAAGLVVNDNDLRNDLAWLSDRGVIHLSLSTWPLSQEEIARALKKAKPSYSSEQVVLARINQRLSALKADFRVTGYTSTDQPGTPQGFGQTQPADNSLGLAFNNSGEWWDVHLQGNVEGGERISNGSRFNANGAYGAVKFWNQWLSFGQVPQWWGPGYEGSLIRGDAMRPMTGFLMQRAEQAAPETWWLRWVGPWQYQISASQMNQYTAVPHAKIIGGRFTFTPFQSLELGASRIMQWGGEGRPQSFSSFWDGFTGHDNTGTDNEPGNQLAGFDFKFKLEPTLGWPVSFYGQMVGEDESGYLPSANMFLGGVEGHHGWGKDTVNWYVEAHDTRTNMSRTNYSYTHHIYKDGYYQQGYPLGDAMGGDGQLIAGKVELITEDNQRWSTRLVYAKVNPENQSINKAFPHADTLKGLQLGWSGDVYQSVRLNTSLWYTNANNSDSDDVGASAGIEIPFSL
As to B1, the “glycan array binding signal (z-score)” value is -0.219 in the assay with Gal(b1-4)Glc6S; -0.185 in the assay with Gal(b1-4)GlcNAc; -0.185 in assay [1]; -0.061 in the assay with Gal(b1-4)GlcNAc(b1-2)Man; -0.266 in assay [2]; -0.203 in assay [3]. The “glycan array binding signal (z-score)” value is -0.188 in [4]; -0.295 in assay [5]; -0.214 in [6]; -0.226 in assay [7]; -0.207 in assay [8]; -0.193 in assay [9]. Moreover, the “glycan array binding signal (z-score)” value was -0.273 in [10]; -0.233 in assay [11]; -0.359 in [12]; -0.323 in [13]; -0.369 in assay [14]; -0.388 in assay [15]. Further, the “glycan array binding signal (z-score)” value is -0.191 in assay [16], -0.387 in assay [17], -0.353 in assay [18] and -0.066 in assay [19].
